Test results as given in the supplement of paper PMC3334620.
Whole data set: some 33,000 sequences, median “E-score (-0.5 to 0.5)” near -0.035, cut for the highest 2% near 0.34. This is one part of the list.

molecular target: T1, Mot3 (UniProt P54785); test: PBM E-score (8-mer binding enrichment) (E-score (-0.5 to 0.5)); higher = stronger / more preferred TF binding; most listed sequences are background and not binding sites; conditions: protein concentration: 200 nM; construct: GST-full length
T1 sequence: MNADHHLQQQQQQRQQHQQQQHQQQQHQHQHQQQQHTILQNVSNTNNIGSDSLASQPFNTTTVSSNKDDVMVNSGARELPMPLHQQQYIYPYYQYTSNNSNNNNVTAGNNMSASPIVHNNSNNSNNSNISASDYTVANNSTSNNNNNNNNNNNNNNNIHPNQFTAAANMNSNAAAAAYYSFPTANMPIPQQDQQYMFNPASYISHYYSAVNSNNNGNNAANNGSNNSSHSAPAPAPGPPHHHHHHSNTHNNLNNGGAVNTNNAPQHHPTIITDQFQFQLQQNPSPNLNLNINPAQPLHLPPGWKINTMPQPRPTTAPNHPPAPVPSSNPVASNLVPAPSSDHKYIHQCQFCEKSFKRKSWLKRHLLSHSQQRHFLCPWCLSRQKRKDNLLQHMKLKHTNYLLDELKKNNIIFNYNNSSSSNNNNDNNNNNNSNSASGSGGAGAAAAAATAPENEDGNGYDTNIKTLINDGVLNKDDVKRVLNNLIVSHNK
How it was run: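 Universal all-10-mer Agilent arrays, double-stranded by primer extension on fresh or once-stripped slides, were probed with about 100-200 nM GST-tagged yeast transcription factors made by PURExpress. Fluorescent anti-GST detected bound protein, and masliner normalised the scans. E-scores from the Universal PBM Analysis Suite were given to each ungapped eight-base word pooled with its reverse complement.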

Sequence	PBM E-score
CTAGAGAA	-0.102
CTTAGAGA	-0.311
CGACTCAC	-0.165
CATATCCC	0.0119
GGAAGCAC	-0.0803
AGGGGAAT	-0.169
TAAAGTCA	0.0168
ATGTAGCA	0.054
AAGCAAGG	0.00463
TACCAGGA	0.0908
AACCTCAG	-0.252
GATGCCCA	-0.159
GAGGATGC	-0.0988
TTAGTGAA	0.065
ACTATATG	0.0655
AGAATCGG	-0.155
CAAGGCCC	0.0163
CAAAAGAC	-0.0118
GACATTGA	0.0627
AAATAGCA	-0.0284
CTCGCGGA	-0.256
CCATCCAG	-0.286
ATTTCCAA	0.0549
AGCTTTAT	0.0439

Sequence	PBM E-score
GGATCCTA	-0.0909
ATAGTGCA	0.134
ACTGCTAA	-0.301
AGCTCACA	0.11
CACTAGAC	-0.0752
CGTCTGGA	-0.265
ACGAGCGT	0.0249
AACTTAGA	-0.0415
AGATGGGG	-0.235
AGCCATGC	0.0307
CCGGTTCG	-0.227
AGCTGAGG	-0.217
CGAGGACC	-0.199
CGAGCGCC	-0.0813
ACACACAA	0.306
ACAAACGT	0.106
ACAAAGGT	0.0948
ACCCCTAA	-0.201
AGGCCCCA	-0.081
CCAACCGA	-0.0369
CCTGAACG	-0.0246
CTAACGAG	-0.0675
GATGCAGA	-0.229
ATCGCTGG	-0.207

Sequence	PBM E-score
CTAGGTCA	-0.135
CAGTCTAG	-0.214
AGTTTCCG	-0.134
ATTGGGCA	0.177
ACGGCCCA	-0.257
AAACACCA	0.00824
GTTCAACA	0.203
ACGTAGAA	0.258
ATCATCTC	-0.0265
TGAATCAA	0.162
CCATAAGG	-0.155
AATCGGCG	-0.0434
TAAGGTCA	0.0282
ACGTCGCT	-0.0667
CACTGCAA	0.0211
GGTTCCAC	-0.34
CGCCCGGA	-0.266
AAGTTCCC	-0.309
GCCCCAGC	-0.197
GTATAGGA	0.112
GCGAAGGA	0.0252
AGGACTTG	-0.037
GAGAACAA	0.0439
ACTGACGC	-0.177

Sequence	PBM E-score
AAAGTCTA	-0.0516
ATTCCACA	0.132
CACCTTCC	0.0105
CCCATCAA	-0.036
TGCTGCCA	-0.0929
ACATCGGA	0.144
GTCATGCA	0.0879
CCCCCACG	-0.183
CACTGCCG	-0.193
GACTTTAA	0.00571
ATCTCTAC	0.00482
AGCCTGTG	0.123
AGTTATTA	0.146
CTATAACC	-0.0507
CCATGCGG	-0.127
AAATTAAG	0.135
CAGTGCTA	-0.178
CTTCCTGC	-0.0264
ACGGGTCT	-0.0726
AGGATTTC	-0.0368
ACTGCGCC	-0.114
ATGGAACC	-0.182
AAGTAGCA	-0.0238
CCTGTCAG	0.0244

Sequence	PBM E-score
GTCCGTTA	0.111
ACAACTTA	0.218
AGACAGGG	-0.286
ACCTTGTG	0.123
ATAACAAA	0.172
GAAGGGCA	0.0344
CAGTCACC	0.248
CGAATAGC	-0.19
AAAATACA	0.298
GGTTTTCA	0.0221
GCTTTCCA	0.036
ATGTTGGA	0.253
ATGTCTAC	0.0545
AAAAAACT	-0.00503
GATACATC	0.188
AGGTATGG	-0.327
CCTACTCG	0.0723
CATAAACC	-0.056
AGGGGAAC	-0.129
ACTTTAGC	-0.136
AAGATGCC	-0.0425
CTCCAAAG	-0.148
GTTAAAAC	0.254
TTCTAAAA	0.0137

Sequence	PBM E-score
CGCGTTAC	0.138
GACCTAGA	-0.187
CATAACGG	0.0242
GCGTGCAC	-0.175
CGTCCTAA	-0.0434
TACTCTGA	0.0284
ATAATGCC	-0.0507
CATTTCCC	0.0713
CGCTAGCA	-0.149
AATCACGT	0.103
AACAACTG	0.103
GGAAATGA	0.0941
GATAAGGA	0.103
AACACTAA	0.128
AGAGCACG	-0.119
CCATCTAA	-0.0463
GGAATCAC	-0.159
GCACGAAC	0.22
TGGCTGAA	-0.0832
AGGCCGAG	-0.163
CAGATCGA	-0.213
ATGTCGGG	0.124
CAAAACAA	0.152
